{
  "source": "the supplement of paper PMC5499739",
  "note": "The full ranking holds about 16,000 sequences; the median of “Z-score” is about -0.37, and the highest 2% start at about 3.2. Some of the results follow.",
  "data": [
    {"tested_on": "RBM10 RRM1-ZnF (GST-tagged construct)", "experiment": "RNAcompete 7-mer binding Z-score; higher = stronger binding preference", "method_in_brief": "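GST-tagged RBM10 constructs (20 pmol) were mixed with a designed pool of 241 399 RNAs up to 41 nt (1.5 nmol), transcribed from microarray-derived DNA templates. Mixing was in 1 ml Hepes pH 7.8 buffer with KCl, NaCl, glycerol, DTT, BSA and glutathione Sepharose beads. Binding ran 30 min at 4°C, followed by four 2-min washes at 4°C, and bound RNA was identified by microarray hybridisation. Each heptamer motif received a one-sided Z-score for enrichment across probes containing it.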", "values": [
      {"sequence": "CCUACCG", "RNAcompete 7-mer binding Z-score": -0.737},
      {"sequence": "GGAGCUA", "RNAcompete 7-mer binding Z-score": 1.22},
      {"sequence": "UAGGCGG", "RNAcompete 7-mer binding Z-score": 1.58},
      {"sequence": "AGCAAUC", "RNAcompete 7-mer binding Z-score": -0.435},
      {"sequence": "CAUUUGG", "RNAcompete 7-mer binding Z-score": -0.292},
      {"sequence": "UGGGCGC", "RNAcompete 7-mer binding Z-score": 1.16},
      {"sequence": "UUUGUGA", "RNAcompete 7-mer binding Z-score": -0.383},
      {"sequence": "ACUAGUU", "RNAcompete 7-mer binding Z-score": -0.535},
      {"sequence": "CUCACGC", "RNAcompete 7-mer binding Z-score": -0.493},
      {"sequence": "CUGUAUA", "RNAcompete 7-mer binding Z-score": -0.707},
      {"sequence": "GAUGUUG", "RNAcompete 7-mer binding Z-score": 0.93},
      {"sequence": "GACAUCG", "RNAcompete 7-mer binding Z-score": -0.282},
      {"sequence": "AUCAUCC", "RNAcompete 7-mer binding Z-score": -0.74},
      {"sequence": "UCAGUCC", "RNAcompete 7-mer binding Z-score": -0.711},
      {"sequence": "AGAACAC", "RNAcompete 7-mer binding Z-score": -0.581},
      {"sequence": "UUGGAUA", "RNAcompete 7-mer binding Z-score": 0.755},
      {"sequence": "GUGAGAU", "RNAcompete 7-mer binding Z-score": 0.823},
      {"sequence": "CGAUCUC", "RNAcompete 7-mer binding Z-score": -0.746},
      {"sequence": "CCGGGAC", "RNAcompete 7-mer binding Z-score": 0.287},
      {"sequence": "CUGCAAC", "RNAcompete 7-mer binding Z-score": -0.626},
      {"sequence": "GAGGCGG", "RNAcompete 7-mer binding Z-score": 1.93},
      {"sequence": "AGGCUAC", "RNAcompete 7-mer binding Z-score": -0.24},
      {"sequence": "CCGACAU", "RNAcompete 7-mer binding Z-score": -0.834},
      {"sequence": "CAGGGGC", "RNAcompete 7-mer binding Z-score": 1.55},
      {"sequence": "UUGUGGA", "RNAcompete 7-mer binding Z-score": 1.18},
      {"sequence": "CGUGCUA", "RNAcompete 7-mer binding Z-score": -0.62},
      {"sequence": "CAGUGCC", "RNAcompete 7-mer binding Z-score": -0.431},
      {"sequence": "CCGCCAC", "RNAcompete 7-mer binding Z-score": -0.357},
      {"sequence": "GGCGCGU", "RNAcompete 7-mer binding Z-score": 0.488},
      {"sequence": "UCGAAAA", "RNAcompete 7-mer binding Z-score": -0.269},
      {"sequence": "UUAAGUC", "RNAcompete 7-mer binding Z-score": -0.694},
      {"sequence": "CGAUUUU", "RNAcompete 7-mer binding Z-score": -0.912},
      {"sequence": "GCCCCAA", "RNAcompete 7-mer binding Z-score": -0.516},
      {"sequence": "CUCACAC", "RNAcompete 7-mer binding Z-score": -0.539},
      {"sequence": "AUAUUAG", "RNAcompete 7-mer binding Z-score": -0.00246},
      {"sequence": "ACUUACG", "RNAcompete 7-mer binding Z-score": -0.73},
      {"sequence": "CCCGUCA", "RNAcompete 7-mer binding Z-score": -0.62},
      {"sequence": "GUUUUUG", "RNAcompete 7-mer binding Z-score": 0.196},
      {"sequence": "UGCUGCA", "RNAcompete 7-mer binding Z-score": -0.292},
      {"sequence": "GUAUAUG", "RNAcompete 7-mer binding Z-score": 0.28},
      {"sequence": "AGUGUAU", "RNAcompete 7-mer binding Z-score": 0.417},
      {"sequence": "CAUCACA", "RNAcompete 7-mer binding Z-score": -0.694},
      {"sequence": "GAAUGUU", "RNAcompete 7-mer binding Z-score": 0.108},
      {"sequence": "CAUUAGU", "RNAcompete 7-mer binding Z-score": -0.464},
      {"sequence": "CAUCCUU", "RNAcompete 7-mer binding Z-score": -0.867},
      {"sequence": "AAAGGAC", "RNAcompete 7-mer binding Z-score": 2.39},
      {"sequence": "UUCCUGU", "RNAcompete 7-mer binding Z-score": -0.75},
      {"sequence": "AGUCUCU", "RNAcompete 7-mer binding Z-score": -0.613},
      {"sequence": "CGUCCUA", "RNAcompete 7-mer binding Z-score": -0.824},
      {"sequence": "CGGCUCU", "RNAcompete 7-mer binding Z-score": -0.639},
      {"sequence": "AGUUGGG", "RNAcompete 7-mer binding Z-score": 2.89},
      {"sequence": "UAAGCCU", "RNAcompete 7-mer binding Z-score": -0.707},
      {"sequence": "GACGGCU", "RNAcompete 7-mer binding Z-score": -0.227},
      {"sequence": "GGUGCCG", "RNAcompete 7-mer binding Z-score": 1.01},
      {"sequence": "UCUUGCA", "RNAcompete 7-mer binding Z-score": -1.02},
      {"sequence": "GCAUAUG", "RNAcompete 7-mer binding Z-score": 0.257},
      {"sequence": "UUUAUGC", "RNAcompete 7-mer binding Z-score": -0.727},
      {"sequence": "AACCGCC", "RNAcompete 7-mer binding Z-score": -0.74},
      {"sequence": "GGGUUGU", "RNAcompete 7-mer binding Z-score": 2.38},
      {"sequence": "CCAGUUC", "RNAcompete 7-mer binding Z-score": -0.717},
      {"sequence": "ACGGACC", "RNAcompete 7-mer binding Z-score": -0.106},
      {"sequence": "UUACCUG", "RNAcompete 7-mer binding Z-score": -0.763},
      {"sequence": "CCUGGCU", "RNAcompete 7-mer binding Z-score": -0.529},
      {"sequence": "GUUCGGU", "RNAcompete 7-mer binding Z-score": 0.0333},
      {"sequence": "CACGCUC", "RNAcompete 7-mer binding Z-score": -0.578},
      {"sequence": "UCUCGAA", "RNAcompete 7-mer binding Z-score": -0.629},
      {"sequence": "CCCAAUG", "RNAcompete 7-mer binding Z-score": -0.662},
      {"sequence": "GCUGAUG", "RNAcompete 7-mer binding Z-score": 0.54},
      {"sequence": "CUUGUUG", "RNAcompete 7-mer binding Z-score": -0.513},
      {"sequence": "UUGACCC", "RNAcompete 7-mer binding Z-score": -0.545},
      {"sequence": "CAGUAAG", "RNAcompete 7-mer binding Z-score": 0.128},
      {"sequence": "ACUGAGU", "RNAcompete 7-mer binding Z-score": -0.175},
      {"sequence": "AUGAGUA", "RNAcompete 7-mer binding Z-score": 0.625},
      {"sequence": "CGAUGGC", "RNAcompete 7-mer binding Z-score": 0.495},
      {"sequence": "GAGUGAG", "RNAcompete 7-mer binding Z-score": 1.69},
      {"sequence": "AGCGACA", "RNAcompete 7-mer binding Z-score": 0.111},
      {"sequence": "GUACGGG", "RNAcompete 7-mer binding Z-score": 3.08},
      {"sequence": "AAGUAUU", "RNAcompete 7-mer binding Z-score": -0.337},
      {"sequence": "GCUUAGG", "RNAcompete 7-mer binding Z-score": 0.235},
      {"sequence": "AGAUCAC", "RNAcompete 7-mer binding Z-score": -0.688},
      {"sequence": "CGGCCAU", "RNAcompete 7-mer binding Z-score": -0.922},
      {"sequence": "UAGUAUC", "RNAcompete 7-mer binding Z-score": -0.431},
      {"sequence": "UCAUUAU", "RNAcompete 7-mer binding Z-score": -0.597},
      {"sequence": "GAGUGGU", "RNAcompete 7-mer binding Z-score": 2.46},
      {"sequence": "GAGAGGC", "RNAcompete 7-mer binding Z-score": 0.859},
      {"sequence": "AAAGCAA", "RNAcompete 7-mer binding Z-score": 0.124},
      {"sequence": "GUUCUGA", "RNAcompete 7-mer binding Z-score": -0.483},
      {"sequence": "ACACUCA", "RNAcompete 7-mer binding Z-score": -0.516},
      {"sequence": "UGUGCAC", "RNAcompete 7-mer binding Z-score": -0.0934},
      {"sequence": "AUACGGA", "RNAcompete 7-mer binding Z-score": 0.92},
      {"sequence": "UGAUUGC", "RNAcompete 7-mer binding Z-score": -0.236},
      {"sequence": "UCGACCU", "RNAcompete 7-mer binding Z-score": -0.782},
      {"sequence": "UAUGUAA", "RNAcompete 7-mer binding Z-score": -0.23},
      {"sequence": "UUUGAAU", "RNAcompete 7-mer binding Z-score": -0.704},
      {"sequence": "AAAGUGA", "RNAcompete 7-mer binding Z-score": 0.914},
      {"sequence": "ACUCUCC", "RNAcompete 7-mer binding Z-score": -0.711},
      {"sequence": "UCUCUCG", "RNAcompete 7-mer binding Z-score": -0.711},
      {"sequence": "UACAUUU", "RNAcompete 7-mer binding Z-score": -0.733},
      {"sequence": "CAACCUU", "RNAcompete 7-mer binding Z-score": -0.954},
      {"sequence": "AUUGCAC", "RNAcompete 7-mer binding Z-score": -0.6},
      {"sequence": "AGGACGA", "RNAcompete 7-mer binding Z-score": 0.66},
      {"sequence": "AUUUUUU", "RNAcompete 7-mer binding Z-score": -0.896},
      {"sequence": "UCCUGGU", "RNAcompete 7-mer binding Z-score": -0.467},
      {"sequence": "UUCUACA", "RNAcompete 7-mer binding Z-score": -0.717},
      {"sequence": "UGUAUCG", "RNAcompete 7-mer binding Z-score": -0.399},
      {"sequence": "CUUCAAU", "RNAcompete 7-mer binding Z-score": -0.685},
      {"sequence": "GACCUCC", "RNAcompete 7-mer binding Z-score": -0.795},
      {"sequence": "AAAAUCC", "RNAcompete 7-mer binding Z-score": -0.759},
      {"sequence": "GAACAUA", "RNAcompete 7-mer binding Z-score": -0.376},
      {"sequence": "GCCCGGC", "RNAcompete 7-mer binding Z-score": -0.318},
      {"sequence": "GGUAGUA", "RNAcompete 7-mer binding Z-score": 1.24},
      {"sequence": "UUGCUGC", "RNAcompete 7-mer binding Z-score": -0.529},
      {"sequence": "UGACUGA", "RNAcompete 7-mer binding Z-score": -0.119},
      {"sequence": "CCAGUCC", "RNAcompete 7-mer binding Z-score": -0.789},
      {"sequence": "UUAGCUU", "RNAcompete 7-mer binding Z-score": -0.685},
      {"sequence": "CGCCCUC", "RNAcompete 7-mer binding Z-score": -0.587},
      {"sequence": "UUCGACU", "RNAcompete 7-mer binding Z-score": -0.779}
    ]}
  ]
}
